Some of the results follow. The full chains were built here from the parent and the listed change. Inactive controls read about 0.05.
B1: TEV protease; numbered along this chain (parent)
chain: MGESLFKGPRDYNPISSSICHLTNESDGHTTSLYGIGFGPFIITNKHLFRRNNGTLVVQSLHGVFKVKDTTTLQQHLVDGRDMIIIRMPKDFPPFPQKLKFREPQREERICLVTTNFQTKSMSSMVSDTSCTFPSGDGIFWKHWIQTKDGQCGSPLVSTRDGFIVGIHSASNFTNTNNYFTSVPKNFMELLTNQEAQQWVSGWRLNADSVLWGGHKVFMVKPEEPFQPVKEATQL

Variants of: B1
Assay: raw area under fraction-flipped curve 0-4 h after induction (AUC4h, not background-subtracted), DNA-recorder readout of cleavage of the substrate (dimensionless); higher = more cleavage of the substrate by the protease variant
Conditions: temperature: 34 °C; time window: 0-4 h after rhamnose induction
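Note: Bxb1 expression induced with 0.2% (w/v) L-rhamnose at OD600 near 0.5, cultures sampled hourly, flipped fraction per protease–substrate barcode pair counted by paired-end Illumina sequencing.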

Row | Variant | area with substrate ENLYFQF | area with substrate ENLYFQH | area with substrate ENLYFQR | area with substrate ENLYFQS | area with substrate ENLYFQT | area with substrate ENLYFQV | area with substrate ENLYFQL | area with substrate ENLYFQM | area with substrate ENLYFQQ | area with substrate ENLYFQW
1 | Q194I | 0.0531 | 0.0817 | 0.0905 | 0.0939 | 0.0757 | 0.0709 | – | – | – | –
2 | S209R | 0.0649 | – | 0.0559 | 0.0859 | – | – | 0.0582 | 0.0606 | 0.0723 | 0.068
3 | V210E | 0.059 | – | – | 0.0816 | – | – | – | – | – | –
4 | V229R | 0.0104 | – | 0.0455 | 0.105 | – | 0.0701 | 0.0606 | 0.0931 | 0.0708 | –
5 | T233W | 0.0746 | – | – | 0.0925 | – | 0.0562 | – | 0.109 | – | –
6 | L235Y | 0.0939 | – | – | 0.102 | – | – | – | – | – | –
7 | R51N | – | – | 0.0497 | 0.1 | – | – | 0.058 | – | – | 0.0625
8 | V58D | – | – | 0.0416 | 0.0456 | 0.0423 | – | – | 0.0353 | – | –
9 | V58M | – | – | – | 0.102 | 0.0528 | – | 0.0399 | – | – | 0.0707
10 | R87N | – | – | 0.0421 | 0.106 | 0.053 | – | – | – | – | –
11 | M88L | – | 0.0851 | 0.0635 | 0.101 | – | – | – | – | – | 0.0642
12 | D91S | – | 0.0765 | 0.0651 | 0.112 | 0.0595 | 0.0465 | 0.0568 | – | 0.119 | 0.113
13 | F101E | – | – | – | 0.0502 | 0.0369 | 0.0491 | 0.0468 | – | 0.054 | 0.0654
14 | F101H | – | – | 0.0475 | 0.0486 | – | 0.038 | – | – | – | –
15 | E103P | – | – | 0.0264 | 0.105 | – | – | 0.0587 | – | – | 0.0363
16 | R106N | – | 0.0877 | – | 0.0959 | – | 0.064 | 0.0435 | 0.0704 | 0.0584 | –
17 | T114N | – | 0.0699 | – | 0.108 | 0.0681 | – | 0.0614 | 0.0797 | 0.0624 | 0.071
18 | M125Y | – | – | 0.0617 | 0.105 | – | – | – | 0.0793 | 0.0615 | 0.0746
19 | D137S | – | – | 0.0512 | 0.0925 | 0.0518 | 0.0611 | 0.0686 | – | – | 0.0613
20 | W141N | – | – | – | 0.0571 | – | – | 0.0595 | 0.0536 | – | 0.0588
21 | F163A | – | – | – | 0.109 | – | – | – | – | – | –
22 | A170W | – | 0.0505 | – | 0.0554 | 0.0241 | – | 0.0595 | – | 0.0567 | 0.0654
23 | N172V | – | – | 0.0508 | 0.0552 | – | – | – | – | – | 0.0518
24 | N178Q | – | 0.089 | – | 0.117 | 0.0742 | – | – | – | 0.0699 | –

Row | Variant | area with substrate ENLYFQF | area with substrate ENLYFQH | area with substrate ENLYFQR | area with substrate ENLYFQS | area with substrate ENLYFQT | area with substrate ENLYFQV | area with substrate ENLYFQL | area with substrate ENLYFQM | area with substrate ENLYFQQ | area with substrate ENLYFQW
25 | F180H | – | – | – | 0.107 | 0.0577 | – | – | – | – | 0.0412
26 | S182H | – | – | 0.0624 | 0.0844 | 0.0572 | – | 0.0536 | 0.0519 | – | –
27 | E195P | – | – | – | 0.084 | – | – | – | – | – | –
28 | S201Q | – | 0.0879 | – | 0.0995 | 0.0671 | – | – | 0.0824 | – | –
29 | G202W | – | – | – | 0.0598 | – | – | 0.0536 | – | – | 0.07
30 | S209H | – | – | 0.0625 | 0.113 | 0.0504 | 0.0649 | 0.0534 | – | 0.062 | 0.0873
31 | S209W | – | – | – | 0.109 | – | – | 0.0753 | – | – | 0.0565
32 | P228S | – | – | – | 0.107 | – | 0.0571 | – | 0.127 | – | 0.0658
33 | G2A | – | 0.126 | 0.0625 | 0.109 | – | – | 0.055 | 0.096 | – | –
34 | K7S | – | 0.0742 | – | 0.134 | – | 0.0389 | – | – | – | –
35 | G35A | – | 0.0713 | – | 0.101 | – | 0.065 | 0.0702 | – | – | –
36 | K66Q | – | 0.0573 | – | 0.102 | – | – | – | 0.083 | – | –
37 | H76G | – | 0.0903 | – | 0.11 | – | – | 0.0556 | 0.101 | – | –
38 | P89C | – | 0.0714 | 0.0579 | 0.0876 | – | – | 0.0516 | – | – | –
39 | F92K | – | 0.0715 | 0.0335 | 0.105 | – | 0.045 | 0.0601 | 0.0967 | – | –
40 | C131P | – | 0.0796 | – | 0.111 | 0.0687 | – | 0.066 | – | – | 0.0606
41 | G138L | – | 0.0749 | – | 0.0977 | – | – | 0.052 | – | – | 0.0709
42 | I145N | – | 0.0929 | 0.0537 | 0.0958 | 0.0653 | 0.0819 | – | 0.118 | – | –
43 | G153F | – | 0.027 | – | 0.0528 | 0.0598 | – | 0.0393 | 0.0621 | – | 0.0658
44 | G153L | – | 0.0393 | – | 0.0466 | – | 0.0551 | – | – | 0.0169 | –
45 | A170E | – | 0.0667 | 0.0465 | 0.0618 | 0.06 | – | – | 0.0511 | – | 0.0492
46 | N193C | – | 0.0612 | – | 0.0994 | – | – | – | – | – | 0.0855
47 | W199Q | – | 0.0518 | – | 0.0672 | – | – | – | – | – | –

Same assay, conditions: temperature: 34 °C; time window: 0-4 h after rhamnose induction

Row | Variant | area with substrate ENLYFQY | area with substrate ENLYFQK | area with substrate ENLYFQN | area with substrate ENLYFQP | area with substrate ENLYFQI | area with substrate ENLYFQG
48 | S209R | 0.0602 | – | – | – | – | –
49 | V210E | – | 0.0628 | – | – | – | –
50 | V229R | – | 0.0676 | 0.0832 | – | – | –
51 | T233W | 0.0751 | – | 0.0689 | 0.0527 | – | –
52 | L235Y | – | 0.0644 | 0.0865 | – | 0.045 | –
53 | R51N | 0.0898 | – | – | – | – | 0.102
54 | V58D | – | 0.0412 | – | 0.0486 | – | 0.0301
55 | V58M | – | – | 0.0606 | – | 0.0532 | 0.0921
56 | R87N | – | – | – | – | – | 0.0832
57 | M88L | 0.0798 | 0.0752 | – | 0.068 | 0.0614 | 0.0906
58 | D91S | – | – | 0.0821 | – | 0.0657 | 0.133
59 | F101E | – | – | – | – | 0.0523 | 0.0453
60 | F101H | – | – | – | – | 0.0554 | 0.0453
61 | E103P | – | – | 0.0593 | – | – | 0.0871
62 | R106N | – | 0.0654 | – | – | 0.0515 | 0.0809
63 | T114N | – | – | 0.109 | 0.0515 | – | 0.0947
64 | M125Y | – | – | 0.0969 | – | – | 0.0577
65 | D137S | 0.073 | 0.0477 | – | 0.0563 | – | 0.0932
66 | W141N | 0.0213 | – | – | – | 0.0443 | 0.0307
67 | F163A | 0.083 | 0.0456 | 0.0877 | – | – | 0.0901
68 | A170W | 0.0707 | 0.0628 | 0.0512 | 0.0548 | 0.0587 | 0.0657
69 | N172V | – | 0.061 | 0.0619 | – | – | 0.0593

Row | Variant | area with substrate ENLYFQY | area with substrate ENLYFQK | area with substrate ENLYFQN | area with substrate ENLYFQP | area with substrate ENLYFQI | area with substrate ENLYFQG
70 | N178Q | – | – | – | – | – | 0.184
71 | F180H | – | – | – | 0.0561 | 0.0536 | 0.0995
72 | S182H | 0.0573 | 0.0575 | 0.0696 | 0.0272 | 0.0601 | 0.0789
73 | E195P | – | 0.0822 | – | – | – | 0.0756
74 | S201Q | 0.0706 | 0.0659 | – | – | – | 0.0763
75 | G202W | 0.0414 | 0.0686 | 0.0574 | 0.0632 | 0.0523 | 0.0733
76 | S209H | 0.0807 | 0.0674 | – | 0.0585 | – | 0.11
77 | S209W | 0.119 | – | – | – | – | 0.117
78 | P228S | 0.054 | 0.0644 | – | – | – | 0.116
79 | G2A | 0.103 | – | – | 0.0515 | 0.0515 | –
80 | K66Q | – | – | 0.0723 | 0.0395 | 0.0433 | –
81 | H76G | – | – | 0.0752 | – | – | –
82 | F92K | – | – | – | 0.0472 | – | –
83 | C131P | 0.0534 | – | 0.0975 | – | – | –
84 | G138L | – | 0.012 | 0.0507 | – | – | –
85 | I145N | – | – | – | 0.0755 | 0.0711 | –
86 | G153F | – | – | 0.0489 | 0.0309 | 0.0563 | –
87 | G153L | 0.048 | – | 0.0394 | – | – | –
88 | A170E | – | 0.0644 | 0.0549 | – | – | –
89 | N193C | – | 0.0637 | – | – | – | –
90 | W199Q | – | 0.0794 | – | 0.0618 | – | –
